# Data as given in the supplement of paper PMC8728848.
# The other results are listed elsewhere or left out.
# Columns and labels:
# Experiment in all cases: glycan array binding signal (z-score within array); higher = stronger binding
# Conditions in all cases: glycan notation: IUPAC condensed, linker removed
# [1] = biological target: GlcNAc(b1-3)Gal(b1-4)GlcNAc(b1-3)Gal(b1-4)GlcNAc
# Method in brief: (§1)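 Glycan array binding is given as a within-array Z-score, which can be read as non-binding when negative. The arrays, 3228 of them, came from the Consortium for Functional Glycomics database and were retained only where the protein sequence was available. Z-scores were averaged across arrays of the same protein sequence at different concentrations or buffers and across linkers.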
# GlcNAc(b1-3)GalNAc = biological target: GlcNAc(b1-3)GalNAc
# Method in brief: as §1
# GlcNAc(b1-3)Man = biological target: GlcNAc(b1-3)Man
# Method in brief: as §1
# [2] = biological target: GlcNAc(b1-3)[GlcNAc(b1-4)][GlcNAc(b1-6)]GlcNAc
# Method in brief: as §1
# [3] = biological target: GlcNAc(b1-3)[GlcNAc(b1-6)]Gal(b1-4)GlcNAc
# Method in brief: as §1
# [4] = biological target: GlcNAc(b1-3)[GlcNAc(b1-6)]GalNAc
# Method in brief: as §1
# [5] = biological target: GlcNAc(b1-4)Gal(b1-4)GlcNAc
# Method in brief: as §1
# GlcNAc(b1-4)GlcNAc = biological target: GlcNAc(b1-4)GlcNAc
# Method in brief: as §1
# [6] = biological target: GlcNAc(b1-4)GlcNAc(b1-4)GlcNAc
# Method in brief: as §1
# [7] = biological target: GlcNAc(b1-4)GlcNAc(b1-4)GlcNAc(b1-4)GlcNAc(b1-4)GlcNAc
# Method in brief: as §1
# [8] = biological target: GlcNAc(b1-4)GlcNAc(b1-4)GlcNAc(b1-4)GlcNAc(b1-4)GlcNAc(b1-4)GlcNAc
# Method in brief: as §1
# [9] = biological target: GlcNAc(b1-4)[GlcNAc(b1-6)]GalNAc
# Method in brief: as §1
# [10] = biological target: GlcNAc(b1-6)Gal(b1-4)GlcNAc
# Method in brief: as §1
# GlcNAc(b1-6)GalNAc = biological target: GlcNAc(b1-6)GalNAc
# Method in brief: as §1
# GlcNAc3Prop(b1-4)GlcNAc = biological target: GlcNAc3Prop(b1-4)GlcNAc
# Method in brief: as §1
# [11] = biological target: GlcNAc6S(b1-3)Gal(b1-4)GlcNAc
# Method in brief: as §1
# Kdn(a2-3)Gal(b1-3)GalNAc = biological target: Kdn(a2-3)Gal(b1-3)GalNAc
# Method in brief: as §1
# Kdn(a2-3)Gal(b1-3)GlcNAc = biological target: Kdn(a2-3)Gal(b1-3)GlcNAc
# Method in brief: as §1
# Kdn(a2-3)Gal(b1-4)Glc = biological target: Kdn(a2-3)Gal(b1-4)Glc
# Method in brief: as §1
# Kdn(a2-3)Gal(b1-4)GlcNAc = biological target: Kdn(a2-3)Gal(b1-4)GlcNAc
# Method in brief: as §1
# [12] = biological target: Kdn(a2-3)Gal(b1-4)[Fuc(a1-3)]GlcNAc
# Method in brief: as §1
# Kdn(a2-6)Gal(b1-4)GlcNAc = biological target: Kdn(a2-6)Gal(b1-4)GlcNAc
# Method in brief: as §1
# [13] = biological target: Man(a1-2)Man(a1-2)Man(a1-3)Man
# Method in brief: as §1
# [14] = biological target: Man(a1-2)Man(a1-2)Man(a1-6)[Man(a1-3)]Man
# Method in brief: as §1
# Man(a1-2)Man(a1-3)Man = biological target: Man(a1-2)Man(a1-3)Man
# Method in brief: as §1
# [15] = biological target: Man(a1-2)Man(a1-3)[Man(a1-2)Man(a1-6)]Man
# Method in brief: as §1
# [16] = biological target: Man(a1-2)Man(a1-3)[Man(a1-2)Man(a1-6)]Man(a1-6)[Man(a1-2)Man(a1-2)Man(a1-3)]Man
# Method in brief: as §1
# [17] = biological target: Man(a1-2)Man(a1-3)[Man(a1-2)Man(a1-6)]Man(a1-6)[Man(a1-2)Man(a1-2)Man(a1-3)]Man(b1-4)GlcNAc(b1-4)GlcNAc
# Method in brief: as §1
# [18] = biological target: Man(a1-2)Man(a1-3)[Man(a1-6)]Man(a1-6)[Man(a1-2)Man(a1-3)]Man(b1-4)GlcNAc(b1-4)GlcNAc
# Method in brief: as §1
# [19] = biological target: Man(a1-2)Man(a1-6)[Man(a1-3)]Man(a1-6)[Man(a1-2)Man(a1-2)Man(a1-3)]Man
# Method in brief: as §1
# [20] = biological target: Man(a1-2)Man(a1-6)[Man(a1-3)]Man(a1-6)[Man(a1-2)Man(a1-2)Man(a1-3)]Man(b1-4)GlcNAc(b1-4)GlcNAc
# Method in brief: as §1
# Man(a1-3)[Man(a1-6)]Man = biological target: Man(a1-3)[Man(a1-6)]Man
# Method in brief: as §1
# [21] = biological target: Man(a1-3)[Man(a1-6)]Man(a1-6)[Man(a1-2)Man(a1-3)]Man(b1-4)GlcNAc(b1-4)GlcNAc
# Method in brief: as §1
# [22] = biological target: Man(a1-3)[Man(a1-6)]Man(a1-6)[Man(a1-3)]Man
# Method in brief: as §1
# [23] = biological target: Man(a1-3)[Man(a1-6)]Man(a1-6)[Man(a1-3)]Man(b1-4)GlcNAc(b1-4)GlcNAc
# Method in brief: as §1
# [24] = biological target: Man(a1-3)[Man(a1-6)]Man(b1-4)GlcNAc(b1-4)GlcNAc
# Method in brief: as §1
# Man(a1-6)Man = biological target: Man(a1-6)Man
# Method in brief: as §1
# Man(b1-4)GlcNAc = biological target: Man(b1-4)GlcNAc
# Method in brief: as §1
# Neu5Ac(a2-3)Gal = biological target: Neu5Ac(a2-3)Gal
# Method in brief: as §1
# [25] = biological target: Neu5Ac(a2-3)Gal(b1-3)GalNAc
# Method in brief: as §1
# [26] = biological target: Neu5Ac(a2-3)Gal(b1-3)GalNAc(b1-3)Gal(a1-4)Gal(b1-4)Glc
# Method in brief: as §1
# [27] = biological target: Neu5Ac(a2-3)Gal(b1-3)GalNAc(b1-4)[Neu5Ac(a2-3)]Gal(b1-4)Glc
# Method in brief: as §1
# [28] = biological target: Neu5Ac(a2-3)Gal(b1-3)GalNAc6S
# Method in brief: as §1
# [29] = biological target: Neu5Ac(a2-3)Gal(b1-3)GlcNAc
# Method in brief: as §1
# [30] = biological target: Neu5Ac(a2-3)Gal(b1-3)GlcNAc(b1-2)Man(a1-3)[Neu5Ac(a2-3)Gal(b1-3)GlcNAc(b1-2)Man(a1-6)]Man(b1-4)GlcNAc(b1-4)GlcNAc
# Method in brief: as §1
binder,measurement,setting,value
Gal 1 (Canis lupus) (protein) MACGLVASNLSLKPGQCLRVQCEVVPEAKSFVLNLGKDGDNLCLHFNPRFEAHGDVNTIVCNSKDGGAWGEELRESAFPFQPGTVTEVCISFDQADLTIKLPDGYTFKFPNRLNLEAISYLAADGDMKIKCLAFD,glycan array binding signal (z-score),[1],-0.152
same,glycan array binding signal (z-score),GlcNAc(b1-3)GalNAc,-0.318
same,glycan array binding signal (z-score),GlcNAc(b1-3)Man,-0.306
same,glycan array binding signal (z-score),[2],-0.315
same,glycan array binding signal (z-score),[3],-0.334
same,glycan array binding signal (z-score),[4],-0.326
same,glycan array binding signal (z-score),[5],-0.325
same,glycan array binding signal (z-score),GlcNAc(b1-4)GlcNAc,-0.321
same,glycan array binding signal (z-score),[6],-0.24
same,glycan array binding signal (z-score),[7],-0.334
same,glycan array binding signal (z-score),[8],-0.326
same,glycan array binding signal (z-score),[9],-0.328
same,glycan array binding signal (z-score),[10],-0.307
same,glycan array binding signal (z-score),GlcNAc(b1-6)GalNAc,-0.33
same,glycan array binding signal (z-score),GlcNAc3Prop(b1-4)GlcNAc,-0.334
same,glycan array binding signal (z-score),[11],0.006
same,glycan array binding signal (z-score),Kdn(a2-3)Gal(b1-3)GalNAc,-0.309
same,glycan array binding signal (z-score),Kdn(a2-3)Gal(b1-3)GlcNAc,0.313
same,glycan array binding signal (z-score),Kdn(a2-3)Gal(b1-4)Glc,-0.303
same,glycan array binding signal (z-score),Kdn(a2-3)Gal(b1-4)GlcNAc,0.013
same,glycan array binding signal (z-score),[12],-0.319
same,glycan array binding signal (z-score),Kdn(a2-6)Gal(b1-4)GlcNAc,-0.302
same,glycan array binding signal (z-score),[13],-0.33
same,glycan array binding signal (z-score),[14],-0.323
same,glycan array binding signal (z-score),Man(a1-2)Man(a1-3)Man,-0.306
same,glycan array binding signal (z-score),[15],-0.319
same,glycan array binding signal (z-score),[16],-0.331
same,glycan array binding signal (z-score),[17],-0.334
same,glycan array binding signal (z-score),[18],-0.334
same,glycan array binding signal (z-score),[19],-0.329
same,glycan array binding signal (z-score),[20],-0.336
same,glycan array binding signal (z-score),Man(a1-3)[Man(a1-6)]Man,-0.331
same,glycan array binding signal (z-score),[21],-0.337
same,glycan array binding signal (z-score),[22],-0.338
same,glycan array binding signal (z-score),[23],-0.304
same,glycan array binding signal (z-score),[24],-0.318
same,glycan array binding signal (z-score),Man(a1-6)Man,-0.336
same,glycan array binding signal (z-score),Man(b1-4)GlcNAc,-0.316
same,glycan array binding signal (z-score),Neu5Ac(a2-3)Gal,-0.316
same,glycan array binding signal (z-score),[25],-0.316
same,glycan array binding signal (z-score),[26],-0.33
same,glycan array binding signal (z-score),[27],-0.296
same,glycan array binding signal (z-score),[28],-0.333
same,glycan array binding signal (z-score),[29],0.165
same,glycan array binding signal (z-score),[30],0.24
